Data: patent publication US20250222125A1, “Anti-FGFR2b Antibodies, Conjugates and Methods of Use” (BeiGene, Ltd., priority 2024, published 2025)

Assay: Corneal dystrophy / corneal thickness in HSC-39 tumor-bearing mice
Conditions: i.v.; BGA3457 10 mg/kg Q2W×2, BGA1421 10 mg/kg BIW×8; H&E
Protocol: HSC-39 cells were inoculated in the right flank by subcutaneous injection of 5.0×10^6 cells with matrigel (1:1 v/v ratio). Tumor volume was calculated using the formula: V=0.5×(a×b^2) where a and b are the long and short diameters of the tumor, respectively. When tumor volume reached approximately 200 mm^3 in size, mice were randomized into each group. Animals were intravenously administered vehicle, BGA3457 (10 mg/kg, Q2W×2), or BGA1421 (10 mg/kg, BIW×8). At the endpoint, mice were euthanized using carbon dioxide and eyes were collected and fixed in Davidson solution (95% ethanol/formaldehyde/acetic acid/distilled water: 30 mL/20 mL/10 mL/20 mL), then transferred into 75% ethanol 24 hours later. Corneal abnormalities were analyzed by H&E staining. Mouse corneal thickness was measured by Imagescope software (Leica Biosystems). The differences between the mean values of data for comparing groups were analyzed for significance using appropriate analysis by GraphPad Prism (GraphPad Software, Inc.). p<0.05 is considered to be statistically significant.

BGA1421: comparator antibody bemarituzumab, un-conjugated; HC SEQ ID NO: 35, LC SEQ ID NO: 36 [reference compound]
corneal thickness compared to vehicle: significantly thinned the cornea
